Reference: PubChem BioAssay AID2107 (National Center for Advancing Translational Sciences (NCATS), 2009)
Where “and” joins values, the source holds several entries; their conditions need not be identical. Equal entries are not always repeated. Screen size: about 240,000 compounds; about 20 (0.008%) were called active. Inconclusive results, whose numbers are uncertain, are shown with a selection of clear calls. Calls come from the whole dose curve; as a rule, active = well fitted inhibition curve with a large enough effect; inconclusive = small, poorly fitted or top-dose-only effect, or effect the other way; inactive = flat fitted curve, though single readings scatter. A potency beside an inconclusive call is a rough fit, not a confirmed value. Some compounds were tested as several samples or in several runs, with calls that do not always agree.

target: Alpha-galactosidase A (Homo sapiens) (UniProt P06280); test: qHTS Assay for Inhibitors and Activators of Human alpha-Galactosidase From Spleen Homogenate; conditions: 4MU-alpha-Gal fluorescence, 40 min; series mostly up to 80 µM
Chain of UniProt P06280 (P06280 whole entry, looked up): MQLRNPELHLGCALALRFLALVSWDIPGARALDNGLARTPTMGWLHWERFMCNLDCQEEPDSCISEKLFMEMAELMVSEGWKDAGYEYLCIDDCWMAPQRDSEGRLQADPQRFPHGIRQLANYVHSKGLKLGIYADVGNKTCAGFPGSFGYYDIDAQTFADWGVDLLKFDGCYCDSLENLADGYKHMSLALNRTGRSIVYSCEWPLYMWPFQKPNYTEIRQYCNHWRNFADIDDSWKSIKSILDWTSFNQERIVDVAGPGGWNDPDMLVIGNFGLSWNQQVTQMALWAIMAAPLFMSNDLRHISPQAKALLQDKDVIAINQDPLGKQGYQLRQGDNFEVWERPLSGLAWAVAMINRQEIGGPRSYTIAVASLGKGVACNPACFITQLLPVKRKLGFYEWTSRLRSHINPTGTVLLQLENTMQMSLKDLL
Procedure, shortened: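 Fluorogenic readout (Ex 365/Em 440 nm) of 4-methylumbelliferone released from 1 mM 4-MU-alpha-galactoside by spleen homogenate, 40 min at 37C, pH 5.0. Data normalized to no-enzyme and enzyme controls; Hill-equation AC50 from compound titrations.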
Potency is the fitted concentration of half-maximal effect; tags give direction and shape of the fitted curve.

Row | SMILES | Potency
1 | CCOc1ccc(-c2cc(C)[n+](CCO)c(-c3ccc(OCC)cc3)c2)cc1 | inconclusive: 35.5 µM [activator, single point]
2 | CCOC(=O)C1=C(C)c2ccccc2OC1(C(=O)OCC)c1ccccc1 (stereo unspecified) | inconclusive: 31.6 µM [inhibitor, partial curve]
3 | CC1(C)CN=C(Nc2nc3ccccc3s2)S1 | inconclusive: 35.5 µM [inhibitor, single point]
4 | Cc1cc(OC(=O)N2CCCCC2)c(C(C)C)cc1[N+](C)(C)C | inconclusive: 2.82 µM [inhibitor, partial curve]
5 | CCOP(=O)(OCC)c1nc(-c2cccc3ccccc23)oc1N1CCCCC1 | inconclusive: 35.5 µM [activator, partial curve]
6 | COc1cc2c3cc1Oc1cc(ccc1O)CC1c4c(cc(OC)c(O)c4Oc4ccc(cc4)CC3N(C)CC2)CC[N+]1(C)C (stereo unspecified) | inconclusive: 28.2 µM [inhibitor, single point]
7 | CCOc1ccc2cc(C#N)c(=O)oc2c1 | inconclusive: 39.8 µM [activator, partial curve] and inconclusive: 3.98 µM [activator, partial curve]
8 | CO/C1=C\C(C)=C\[C@@H](C)[C@@H](O)[C@@H](C)C/C(C)=C/C=C/[C@H](OC)[C@@H]([C@@H](C)[C@@H](O)[C@H](C)[C@@]2(O)C[C@@H](O)[C@H](C)C(C(C)C)O2)OC1=O (stereo partly specified) | inconclusive: 12.6 µM [inhibitor, partial curve]
9 | CC(=O)[C@@H]1CC[C@H]2[C@@H]3CC[C@@H]4CC(=O)CC[C@]4(C)[C@H]3CC[C@]12C | inactive
10 | NC(N)=NCCC[C@H](N)C(=O)O | inconclusive: 5.01 µM [inhibitor, full curve, poor fit]
11 | COc1cc(C(O)P(=O)(OC2CCCCC2)c2ccc(N(C)C)cc2)cc(OC)c1OC (stereo unspecified) | inconclusive: 11.2 µM [activator, single point]
12 | O=C(c1cc2c(s1)-c1ccccc1OC2)N1CCC2(CC1)OCCO2 | inconclusive: 50.1 µM [activator, single point]
13 | COc1cc(/C=C/c2nc3ccccc3c(=O)n2-c2cccc(O)c2)ccc1O | inconclusive: 31.6 µM [inhibitor, partial curve]
14 | CC(C)(C)OC(=O)c1c(N)n(Cc2ccco2)c2nc3ccccc3nc12 | inconclusive: 35.5 µM [activator, partial curve]
15 | COc1cc(Cn2c(N)c(C(=O)NCc3ccco3)c3nc4ccccc4nc32)cc(OC)c1OC | inconclusive: 35.5 µM [activator, partial curve]
16 | COc1ccc(Cn2c(N)c(C(=O)NCc3ccco3)c3nc4ccccc4nc32)cc1 | inconclusive: 22.4 µM [activator, partial curve]
17 | CC(=O)/C=C/c1ccccc1 | inconclusive: 7.08 µM [inhibitor, full curve, poor fit]
18 | Nc1c(C(=O)NCc2ccco2)c2nc3ccccc3nc2n1CCN1CCOCC1 | inconclusive: 35.5 µM [activator, partial curve]
19 | NC(N)=NC(=O)c1nc(Cl)c(N)nc1N | inconclusive: 39.8 µM [activator, partial curve] [middle of 5 runs]
20 | CCOC(=O)c1c(N)n(CCCOC(=O)c2ccco2)c2nc3ccccc3nc12 | inconclusive: 31.6 µM [activator, partial curve]
21 | CC(=O)OC1CC(OC(C)=O)[C@]2(C)C(CC(OC(C)=O)[C@]3(C)C2CC[C@@]2(C)C(c4ccoc4)C(=O)C4O[C@]432)C1(C)C (stereo partly specified) | inconclusive: 44.7 µM [inhibitor, single point]

Row | SMILES | Potency
22 | O=c1[nH]c2ccccc2n1CCCN1CCC(n2c(=O)[nH]c3cc(Cl)ccc32)CC1 | inconclusive: 28.2 µM [activator, single point]
23 | O=C(c1c[nH]c2ccc(S(=O)(=O)N3CCOCC3)cc2c1=O)N1CCC2(CC1)OCCO2 | inconclusive: 31.6 µM [activator, partial curve]
24 | CCCOC(=O)c1c(N)n(Cc2cccs2)c2nc3ccccc3nc12 | inconclusive: 31.6 µM [activator, partial curve]
25 | CC(C)CCOC(=O)c1c(N)n(CC2CCCO2)c2nc3ccccc3nc12 (stereo unspecified) | inconclusive: 25.1 µM [activator, partial curve]
26 | Cc1cc(NC(=O)CCl)no1 | inactive
27 | Cc1onc(-c2ccccc2Cl)c1C(=O)OCC(=O)c1ccc2c(c1)OCCO2 | inconclusive: 50.1 µM [inhibitor, single point]
28 | COc1cc2c(cc1OC)-c1c(O)c(OC)cc3c1[C@H](C2)N(C)CC3 | inconclusive: 56.2 µM [activator, partial curve, poor fit]
29 | Cc1c2cnn(CC(=O)N3CCC4(CC3)OCCO4)c(=O)c2c(C)n1Cc1ccccc1 | inconclusive: 50.1 µM [inhibitor, single point]
30 | COC(=O)C(O)(c1cn(C)c2ccccc12)C(F)(F)F (stereo unspecified) | inconclusive: 0.891 µM [activator, single point]
31 | CN1C(=O)C(=Cc2ccc(Sc3ccccc3)o2)C(=O)N(C)C1=O | inactive
32 | Cc1cc(C(=O)CS(=O)(=O)c2ccc(F)cc2)cc(C)c1OC(=O)N(C)C | active: 28.2 µM
33 | Cc1ncc([N+](=O)[O-])n1CCOC(N)=O | inconclusive: 31.6 µM [inhibitor, single point]
34 | O=C(Cn1ncc2c3ccccc3n(Cc3cccc(Cl)c3)c2c1=O)N1CCC2(CC1)OCCO2 | inconclusive: 11.2 µM [activator, single point]
35 | CC(C)OCCCNC(=O)c1c(N)n(CC2CCCO2)c2nc3ccccc3nc12 (stereo unspecified) | inconclusive: 17.8 µM [activator, partial curve]
36 | C=CCN1C(=O)NC(=O)C(Cc2ccc(OC)c(OC)c2)C1=O (stereo unspecified) | inconclusive: 70.8 µM [activator, partial curve, poor fit]
37 | N#CC1=C(N)Oc2c(c(=O)oc3ccccc23)C1c1ccc(OC(=O)N2CCOCC2)cc1 (stereo unspecified) | inconclusive: 35.5 µM [activator, partial curve]
38 | Cc1cccc(N2CCc3c2nc2ccccc2c3N)c1 | inconclusive: 28.2 µM [activator, partial curve]
39 | CCCCn1c(NC(=O)c2ccco2)c(C(=O)OCC)c2nc3ccccc3nc21 | inconclusive: 15.8 µM [activator, single point]
40 | CCC(=O)CC(c1ccccc1)c1c(O)c2ccccc2sc1=O (stereo unspecified) | inconclusive: 0.1 µM [inhibitor, full curve, poor fit]
41 | CCCN(CCC)CCc1c[nH]c2ccc(C(N)=O)cc12 | inconclusive: 0.178 µM [activator, full curve, poor fit]
42 | CCCCC/C=C\C/C=C\C/C=C\C/C=C\CCCC(=O)Nc1ccc(O)cc1C | inconclusive: 35.5 µM [inhibitor, partial curve]

Row | SMILES | Potency
43 | C=CCn1c(O)c(C(CC)=NCc2ccc3c(c2)OCO3)c(=O)[nH]c1=O | inactive
44 | C[N+]1=Cc2cc3c(cc2CC1)OCO3 | inconclusive: 39.8 µM [activator, partial curve]
45 | CCCCn1c(N)c(C(=O)OCCOC)c2nc3ccccc3nc21 | inconclusive: 35.5 µM [activator, partial curve]
46 | CCN1CCN(C(=O)COc2ccc3c(c2)C(=O)CC2(CCN(C(C)=O)CC2)O3)CC1 | inconclusive: 35.5 µM [activator, single point]
47 | COc1ccc(CCNCc2ccncc2)cc1OC | inconclusive: 31.6 µM [inhibitor, single point]
48 | CCCSc1nc(O)c(CC)c(=O)n1C(C)CC (stereo unspecified) | inconclusive: 35.5 µM [inhibitor, single point]
49 | COCCCn1c(N)c(C(=O)NCCC(C)C)c2nc3ccccc3nc21 | inconclusive: 35.5 µM [activator, partial curve]
50 | O=c1ccc2cc(O[C@H]3O[C@@H](CO)[C@@H](O)[C@@H](O)[C@@H]3O)c(O)cc2o1 | inconclusive: 15.8 µM [activator, partial curve]
51 | [Cl-].[Cl-].[Hg+2] | inactive
52 | CC(C)NCC(O)COc1cccc2[nH]ccc12 (stereo unspecified) | active: 10 µM
53 | CN1C(=O)C(Cc2ccsc2)C(=O)N(C)C1=O | inactive
54 | CC(C)[C@H]1C(=O)N2CCC[C@H]2[C@]2(O)O[C@](NC(=O)[C@@H]3C=C4c5cccc6[nH]cc(c56)C[C@H]4N(C)C3)(C(C)C)C(=O)N12 | inconclusive: 39.8 µM [activator, single point]
55 | O=c1[nH]c(O)c(N=Nc2ccc([N+](=O)[O-])cc2)c(=O)[nH]1 | inconclusive: 39.8 µM [inhibitor, single point]
56 | CC(C)OC(=O)c1c(N)n(CC2CCCO2)c2nc3ccccc3nc12 (stereo unspecified) | inconclusive: 31.6 µM [activator, partial curve]
57 | Nc1c(C(=O)NCc2ccco2)c2nc3ccccc3nc2n1CCN1CCCCC1 | inconclusive: 35.5 µM [activator, partial curve]
58 | CNc1ccccc1C(=O)O | inconclusive: 50.1 µM [activator, single point]
59 | Cc1ccc(-c2nc3ccccc3c(=O)n2-c2cc(C)ccn2)cc1 | inconclusive: 50.1 µM [activator, single point]
60 | CN(C)CC1CSCCC1(O)c1cccc(Cl)c1 (stereo unspecified) | inactive
61 | CCCNc1oc(-c2cccc3ccccc23)nc1C#N | inconclusive: 10 µM [activator, full curve]
